Test results published in PMC12136788.
The other results are listed elsewhere or left out.

T1: UNK ZnF1-3 (human, UniProt Q9C0B0 31-174)
T1 sequence: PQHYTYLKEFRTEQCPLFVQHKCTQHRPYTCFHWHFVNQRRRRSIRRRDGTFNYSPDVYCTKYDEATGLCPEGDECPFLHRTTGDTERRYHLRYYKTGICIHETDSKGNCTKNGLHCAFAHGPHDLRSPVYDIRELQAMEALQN

B1: chr11:100904286:100904287:+_ENSMUSG00000019302_ENSMUST00000044721|mus_mus|FALSE|FALSE (ssRNA)
RNA: GGGAGUUCUACAGUCCGACGAUCGUGGAUGAUGCCGAGGAUAACAGACAUCUUCAUCUUGAAGGAGUUGAGGAAGGUCAGCUUGUUGGUUGCAAUGUUCCAAAUCGGAUCAAUGCCAAACGGGUACGGGCCACCAAAAACUCCCAACAGAGGAUUGAGCAUCA
B2: 25765075_25765605_2889_CDS_ENSMUSG00000040907_ENSMUST00000080882|mouse|control|control (ssRNA)
RNA: GGGAGUUCUACAGUCCGACGAUCCAGGUCAGCCCACUGGACCACCACGAUACUCACAAAGAAGGCUGUGUGGCAUGUGAACUCUACCACCUUCCUCUGCUCAUAAGUCCACUGCUGCCCAUAACUGUCUUCUAGGUCAUUGACCAACAGAGGAUUGAGCAUCA
B3: chr12:8504966:8504967:-_ENSMUSG00000054364_ENSMUST00000067384|mus_mus|FALSE|FALSE (ssRNA)
RNA: GGGAGUUCUACAGUCCGACGAUCCAUACAAGUGUGGUCAGAAUGCUGUCUUAUGCAAAUGACAAGUACACUGGGUGUCAAACAAUGGGACAAUUGUGCAAAGAACUCUUUCAUCAACAACAAAAAGCUUCAGCGUUUAAAUAACAACAGAGGAUUGAGCAUCA
B4: chr17:57814845:57814846:+_ENSG00000062716_ENST00000262291|hu_hu|motif|central (ssRNA)
RNA: GGGAGUUCUACAGUCCGACGAUCCUGUUUCUCUAUACGUUGCACAUACUGUUGAUGCACUCCUUCAACAUAAUACGUAGCGGUAAGCACAGCAAGCAGCAGUAAAAAAGACACCACAAUGCUUUGACGAUGCCAUAAUUUUGACAACAGAGGAUUGAGCAUCA
B5: chr1:138071448:138071449:+_ENSMUSG00000041642_ENSMUST00000075164|mus_hu|FALSE|FALSE (ssRNA)
RNA: GGGAGUUCUACAGUCCGACGAUCCUAGAAGACUCCCUGGGGGCUGUGUCGGGGACAGGCCUGAGCUGCAGAGUCGAAGGAGCAGUUCCCUCCUCUGCAAAGCAAACAGAGGAGGCGGCCCUGGAGGGCCGGGGCAGCGGACUCCAACAGAGGAUUGAGCAUCA
B6: 43326760_43339217_387_CDS_ENSMUSG00000022337_ENSMUST00000022962|mouse|control|control (ssRNA)
RNA: GGGAGUUCUACAGUCCGACGAUCAAUGGCAAUCUUACGCUUUCUGGCAGCAGUGUUAGUUGGAUCUUCUUGCAAAAUCCGAUCAUACAGUUGUAUAGCAUCGUCAUAUCUUUCCAUAGCUUCAAAUCGCAUGCCUGUUAACCGCAACAGAGGAUUGAGCAUCA
B7: chr13:100193941:100193942:-_ENSMUSG00000052727_ENSMUST00000064762|mus_mus|motif|central (ssRNA)
RNA: GGGAGUUCUACAGUCCGACGAUCUGUCUGAACUCUCUACAUGGUCAACAUAGAAGUUGAGAAUUCAUUUGUUUUCAAUCGGUUACUUCUCUCACUGAAUGUUUUCCAGGAAAAACAAAAACAAAAAACCAACCCAAGCAAACUCAACAGAGGAUUGAGCAUCA
B8: 12329608_12331292_3055_3pUTR_ENSMUSG00000032625_ENSMUST00000046121|mouse|control|control (ssRNA)
RNA: GGGAGUUCUACAGUCCGACGAUCGAGGGUACAAAUGAGAGUUUUUACAUUUUUCCUUCUUUUUACUUUUCCCAACAAUAGCACGCUUUCUGGUCCUAACUGCACCGCAGUCUCCGUUGCAUGAAGAAAACUUGGACCAGCUGGCAACAGAGGAUUGAGCAUCA
B9: chr7:44244176:44244177:+_ENSG00000106636_ENST00000223369|hu_mus|hu_hu_hu_mus_False|1_88 (ssRNA)
RNA: GGGAGUUCUACAGUCCGACGAUCACUGUCGCUCCGGACGUAGACAUGGCACAGAUACUCUUGUUCUUUGACAGAAGCUCUGCUGCCUUUCCCCGAGCGUUCCACAAUCAGUUGACUUGUAAAGGUCAUGAAUUCCUGAACGCUCAACAGAGGAUUGAGCAUCA
B10: chr5:37680062:37680063:+_ENSMUSG00000029121_ENSMUST00000031004|mus_hu|mus_mus_mus_hu_False|8_8 (ssRNA)
RNA: GGGAGUUCUACAGUCCGACGAUCUUUGGGUGUAGCUGGUACCUCGUACACAGGACCGUCAUACAUGCCCCUGGAAACCCCUUGCAAUCCAAAAACCUUAUUCCUGAUUUUGACGCGCUGGUACAGGUGCUCUGGGAACGCCUUCAACAGAGGAUUGAGCAUCA
B11: chrX:147030916:147030917:+_ENSG00000102081_ENST00000218200|hu_mus|motif|central (ssRNA)
RNA: GGGAGUUCUACAGUCCGACGAUCAAUAUUCCUACCUGCCAAGAUAUAAAAAAGGCACAGAUCAUACAACUCUUUUUUUUGCGGAUGAAAAUAACAAAUGUCACAUCACACACAUUUCAGGGUCCACUAAAAUACUGGAAAAGUCAACAGAGGAUUGAGCAUCA
B12: chr2:74714571:74714572:+_ENSMUSG00000027099_ENSMUST00000028511|mus_hu|FALSE|FALSE (ssRNA)
RNA: GGGAGUUCUACAGUCCGACGAUCCACCAAUAUCUAAUGUAACAUUCAAGUAAAACAUAUUUCAAAAGUUAAGACUCCUGAGACUAACACAUAACUCUAUGACAGCCUGCCUUUACCACGAUCUUCAAAAUAGUGCUGUUCAAUCAACAGAGGAUUGAGCAUCA
B13: chr3:152055631:152055632:+_ENSMUSG00000025437_ENSMUST00000117492|mus_mus|FALSE|FALSE (ssRNA)
RNA: GGGAGUUCUACAGUCCGACGAUCCCAGUUAUGAUUGGUUAGAGUAAUAAGAACAUUAUCGAAGCCAAAGUAUUUACAGUGCUACAAAGGGUUUGCUGGAUCUGCCUGUAGAACAAAGGUCAGAGAACCUAGUUACCAACUGUCCAACAGAGGAUUGAGCAUCA
B14: 128445144_128516786_240_5pUTR_ENSG00000075785_ENST00000265062|human|control|control (ssRNA)
RNA: GGGAGUUCUACAGUCCGACGAUCUCCAGAAUCUCCCAGGAUGAUAACCUUCAGCAACACUUUCUUCCUAGAGGUCAUCCUUCAAACGCGGCCGCUGCGCUGGGGGCUCCGGGCCGGGCGCGUCGCGAGGGCUCCCGCCGAGGACAACAGAGGAUUGAGCAUCA

The binders below were run against T1, UNK ZnF1-3 (assay: nsRBNS (natural sequence RNA bind-n-seq); RBNS binding buffer (assumed for nsRBNS): 25 mM Tris pH 7.5, 150 mM KCl, 3 mM MgCl2, 0.01% Triton X-100, 500 ug/ml BSA, 20 U/ml SUPERase-In, 4 C; UNK is unkempt and MSI1 is Musashi-1; names of the RNAs are library labels; protein concentration not given here; high values mean tight binding).

Q: Which binding signal does the source give for B1 here?
A: 1.41 enrichment R

Q: With B2 as the binder, how does the binding signal read?
A: 0.967 enrichment R

Q: How did the binding signal turn out when B3 was run?
A: 1.49 enrichment R

Q: Which binding signal does the source give for B4 here?
A: 1.16 enrichment R

Q: B5 was tested. Which binding signal did it give?
A: 1.26 enrichment R

Q: Which binding signal does the source give for B6 here?
A: 0.673 enrichment R

Q: With B7 as the binder, how does the binding signal read?
A: 1.2 enrichment R

Q: How did the binding signal turn out when B8 was run?
A: 0.4 enrichment R

Q: For B9, which binding signal is on record?
A: 0.486 enrichment R

Q: B10 was tested. Which binding signal did it give?
A: 0.816 enrichment R

Q: With B11 as the binder, how does the binding signal read?
A: 1.41 enrichment R

Q: For B12, which binding signal is on record?
A: 1.42 enrichment R

Q: For B13, which binding signal is on record?
A: 1.07 enrichment R

Q: With B14 as the binder, how does the binding signal read?
A: 0.879 enrichment R
